Here are results for 9 variants from the supplement of paper PMC12217912.

The chains are these.
B1: TEV protease; numbered along this chain (parent)
chain: MGESLFKGPRDYNPISSSICHLTNESDGHTTSLYGIGFGPFIITNKHLFRRNNGTLVVQSLHGVFKVKDTTTLQQHLVDGRDMIIIRMPKDFPPFPQKLKFREPQREERICLVTTNFQTKSMSSMVSDTSCTFPSGDGIFWKHWIQTKDGQCGSPLVSTRDGFIVGIHSASNFTNTNNYFTSVPKNFMELLTNQEAQQWVSGWRLNADSVLWGGHKVFMVKPEEPFQPVKEATQL

In the assay the parent is B1. Description: raw area under fraction-flipped curve 0-4 h after induction (AUC4h, not background-subtracted), DNA-recorder readout of cleavage of the substrate (dimensionless); higher = more cleavage of the substrate by the protease variant. The conditions noted are these: temperature: 34 °C; time window: 0-4 h after rhamnose induction.

The other results are listed elsewhere or left out. Sequences were assembled here from the parent chain. Values near 0.05 are background.
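Also: Bxb1 expression induced with 0.2% (w/v) L-rhamnose at OD600 near 0.5, cultures sampled hourly, flipped fraction per protease–substrate barcode pair counted by paired-end Illumina sequencing.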

Turning to MGESLFKGPRDYNPISSSICHLTNESDGHTTSLYGIGFGPFIINNKHLFRRNNGTLVVQSLHGVFKVKDTTTLQQHLVDGRDMIIIRMPKDFPPFPQKLKFREPQREERICLVTTNFQTKSMSSMVSDTSCTFPSGDGIFWKHWIQTKDGQCGSPLVSTRDGFIVGIHSASNFTNTNNYFTSVPKNFMELLTNQEAQQWVSGWRLNADSVLWGGHKVFMVKPEEPFQPVKEATQL [T44N], the “area with substrate ENLCFQS” value was 0.0491, the “area with substrate ENLFFQS” value is 0.0442, the “area with substrate ENLHFQS” value was 0.0417 and the “area with substrate ENLIFQS” value was 0.0604. In addition, the “area with substrate ENLKFQS” value is 0.0455, the “area with substrate ENLLFQS” value was 0.0426, the “area with substrate ENLMFQS” value stood at 0.0237 and the “area with substrate ENLNFQS” value came out at 0.0464. Besides, the “area with substrate ENLPFQS” value was determined as 0.0576, the “area with substrate ENLQFQS” value is 0.0449, the “area with substrate ENLSFQS” value turned out to be 0.0544 and the “area with substrate ENLTFQS” value was determined as 0.0527. Further, the “area with substrate ENLWFQS” value came out at 0.0501.

In the case of MGESLFKGPRDYNPISSSICHLTNESDGHTTSLYGIGFGPFIIINKHLFRRNNGTLVVQSLHGVFKVKDTTTLQQHLVDGRDMIIIRMPKDFPPFPQKLKFREPQREERICLVTTNFQTKSMSSMVSDTSCTFPSGDGIFWKHWIQTKDGQCGSPLVSTRDGFIVGIHSASNFTNTNNYFTSVPKNFMELLTNQEAQQWVSGWRLNADSVLWGGHKVFMVKPEEPFQPVKEATQL [T44I], the “area with substrate ENLCFQS” value was determined as 0.0376, the “area with substrate ENLDFQS” value came to 0.0534, the “area with substrate ENLEFQS” value was determined as 0.0653 and the “area with substrate ENLFFQS” value was found to be 0.0679. Further, the “area with substrate ENLHFQS” value was 0.0525, the “area with substrate ENLIFQS” value stood at 0.043, the “area with substrate ENLKFQS” value was 0.058 and the “area with substrate ENLLFQS” value came to 0.0573. For the same variant, the “area with substrate ENLNFQS” value worked out at 0.056, the “area with substrate ENLPFQS” value is 0.0593, the “area with substrate ENLQFQS” value is 0.0607 and the “area with substrate ENLRFQS” value worked out at 0.0627. The “area with substrate ENLSFQS” value amounted to 0.0627 and the “area with substrate ENLTFQS” value is 0.0518.

Turning to MGESLFKGPRDYNPISSSICHLTNESDGHTTSLYGIGFGPFIITNKHLFRRNNMTLVVQSLHGVFKVKDTTTLQQHLVDGRDMIIIRMPKDFPPFPQKLKFREPQREERICLVTTNFQTKSMSSMVSDTSCTFPSGDGIFWKHWIQTKDGQCGSPLVSTRDGFIVGIHSASNFTNTNNYFTSVPKNFMELLTNQEAQQWVSGWRLNADSVLWGGHKVFMVKPEEPFQPVKEATQL [G54M], the “area with substrate ENLCFQS” value came out at 0.0619, the “area with substrate ENLDFQS” value is 0.0574, the “area with substrate ENLEFQS” value came to 0.0612 and the “area with substrate ENLFFQS” value stood at 0.0677. Also, the “area with substrate ENLGFQS” value is 0.0647, the “area with substrate ENLHFQS” value came to 0.0423, the “area with substrate ENLIFQS” value came to 0.0672 and the “area with substrate ENLKFQS” value came out at 0.0556. In addition, the “area with substrate ENLLFQS” value turned out to be 0.0612, the “area with substrate ENLMFQS” value turned out to be 0.0554, the “area with substrate ENLPFQS” value turned out to be 0.0618 and the “area with substrate ENLQFQS” value came to 0.0506. The “area with substrate ENLRFQS” value is 0.0564, the “area with substrate ENLSFQS” value worked out at 0.0552, the “area with substrate ENLTFQS” value turned out to be 0.0647 and the “area with substrate ENLVFQS” value amounted to 0.0449. The “area with substrate ENLWFQS” value came out at 0.0573.

MGESLFKGPRDYNPISSSICHLTNESDGHTTSLYGIGKGPFIITNKHLFRRNNGTLVVQSLHGVFKVKDTTTLQQHLVDGRDMIIIRMPKDFPPFPQKLKFREPQREERICLVTTNFQTKSMSSMVSDTSCTFPSGDGIFWKHWIQTKDGQCGSPLVSTRDGFIVGIHSASNFTNTNNYFTSVPKNFMELLTNQEAQQWVSGWRLNADSVLWGGHKVFMVKPEEPFQPVKEATQL [F38K]: the “area with substrate ENLCFQS” value was determined as 0.0932, the “area with substrate ENLDFQS” value is 0.0599, the “area with substrate ENLFFQS” value is 0.0699 and the “area with substrate ENLHFQS” value amounted to 0.0337. Further, the “area with substrate ENLIFQS” value was 0.0628, the “area with substrate ENLLFQS” value is 0.0303, the “area with substrate ENLNFQS” value was 0.0473 and the “area with substrate ENLPFQS” value amounted to 0.0584. Further, the “area with substrate ENLQFQS” value was found to be 0.0443, the “area with substrate ENLSFQS” value came to 0.0368, the “area with substrate ENLTFQS” value was 0.0582 and the “area with substrate ENLWFQS” value is 0.0443.

For MGESLFKGPRDYNPISSSICHLTNESDGHTTSLYGIAFGPFIITNKHLFRRNNGTLVVQSLHGVFKVKDTTTLQQHLVDGRDMIIIRMPKDFPPFPQKLKFREPQREERICLVTTNFQTKSMSSMVSDTSCTFPSGDGIFWKHWIQTKDGQCGSPLVSTRDGFIVGIHSASNFTNTNNYFTSVPKNFMELLTNQEAQQWVSGWRLNADSVLWGGHKVFMVKPEEPFQPVKEATQL [G37A], the “area with substrate ENLCFQS” value came to 0.0746, the “area with substrate ENLDFQS” value worked out at 0.0684, the “area with substrate ENLEFQS” value was found to be 0.0558 and the “area with substrate ENLFFQS” value is 0.0901. Also, the “area with substrate ENLHFQS” value amounted to 0.0629, the “area with substrate ENLIFQS” value was 0.0946, the “area with substrate ENLKFQS” value is 0.0768 and the “area with substrate ENLLFQS” value was 0.076. For the same variant, the “area with substrate ENLMFQS” value was 0.0731, the “area with substrate ENLNFQS” value came out at 0.0642, the “area with substrate ENLPFQS” value was 0.0634 and the “area with substrate ENLQFQS” value came to 0.0551. Also, the “area with substrate ENLRFQS” value stood at 0.0746, the “area with substrate ENLSFQS” value was found to be 0.0426, the “area with substrate ENLTFQS” value was determined as 0.0767 and the “area with substrate ENLWFQS” value turned out to be 0.0814.

MGESLFKGPRDYNPISSSICHLTNESDGHTTSLYGISFGPFIITNKHLFRRNNGTLVVQSLHGVFKVKDTTTLQQHLVDGRDMIIIRMPKDFPPFPQKLKFREPQREERICLVTTNFQTKSMSSMVSDTSCTFPSGDGIFWKHWIQTKDGQCGSPLVSTRDGFIVGIHSASNFTNTNNYFTSVPKNFMELLTNQEAQQWVSGWRLNADSVLWGGHKVFMVKPEEPFQPVKEATQL [G37S]: the “area with substrate ENLCFQS” value was found to be 0.0598, the “area with substrate ENLDFQS” value was determined as 0.0614, the “area with substrate ENLEFQS” value came to 0.0496 and the “area with substrate ENLFFQS” value worked out at 0.0778. The “area with substrate ENLIFQS” value is 0.107, the “area with substrate ENLKFQS” value was found to be 0.0741, the “area with substrate ENLLFQS” value was found to be 0.0552 and the “area with substrate ENLNFQS” value came out at 0.0675. Also, the “area with substrate ENLPFQS” value worked out at 0.0627, the “area with substrate ENLQFQS” value turned out to be 0.0475, the “area with substrate ENLSFQS” value is 0.0773 and the “area with substrate ENLVFQS” value was determined as 0.0734. The “area with substrate ENLWFQS” value amounted to 0.0634.

With MGESLFKGPRDYNPISSSICHLTNESDGHTTSLYGIGFGPFIITNKHLFRRNNGTLVVQSLHGVFMVKDTTTLQQHLVDGRDMIIIRMPKDFPPFPQKLKFREPQREERICLVTTNFQTKSMSSMVSDTSCTFPSGDGIFWKHWIQTKDGQCGSPLVSTRDGFIVGIHSASNFTNTNNYFTSVPKNFMELLTNQEAQQWVSGWRLNADSVLWGGHKVFMVKPEEPFQPVKEATQL [K66M], the “area with substrate ENLCFQS” value worked out at 0.0668, the “area with substrate ENLDFQS” value is 0.0571, the “area with substrate ENLEFQS” value was determined as 0.0848 and the “area with substrate ENLFFQS” value turned out to be 0.0755. Also, the “area with substrate ENLGFQS” value came out at 0.0593, the “area with substrate ENLHFQS” value is 0.0653, the “area with substrate ENLKFQS” value amounted to 0.0651 and the “area with substrate ENLLFQS” value was determined as 0.0512. In addition, the “area with substrate ENLNFQS” value amounted to 0.0648, the “area with substrate ENLPFQS” value came to 0.0619, the “area with substrate ENLQFQS” value was 0.0799 and the “area with substrate ENLRFQS” value is 0.0701. Moreover, the “area with substrate ENLSFQS” value worked out at 0.0549, the “area with substrate ENLVFQS” value came to 0.0777 and the “area with substrate ENLWFQS” value is 0.0564.

With MGESLFKGPRDYNPISSSICHLTNESDGHTTSLYGIGFGPFIITNKHLFRRNNGTLVVQSLHGVFKVIDTTTLQQHLVDGRDMIIIRMPKDFPPFPQKLKFREPQREERICLVTTNFQTKSMSSMVSDTSCTFPSGDGIFWKHWIQTKDGQCGSPLVSTRDGFIVGIHSASNFTNTNNYFTSVPKNFMELLTNQEAQQWVSGWRLNADSVLWGGHKVFMVKPEEPFQPVKEATQL [K68I], the “area with substrate ENLCFQS” value was found to be 0.0625, the “area with substrate ENLDFQS” value is 0.0655, the “area with substrate ENLFFQS” value is 0.0715 and the “area with substrate ENLHFQS” value is 0.0684. In addition, the “area with substrate ENLKFQS” value amounted to 0.0846, the “area with substrate ENLLFQS” value came out at 0.0676, the “area with substrate ENLNFQS” value is 0.0622 and the “area with substrate ENLPFQS” value worked out at 0.0709. For the same variant, the “area with substrate ENLQFQS” value stood at 0.0618, the “area with substrate ENLRFQS” value was 0.0764, the “area with substrate ENLVFQS” value was 0.0778 and the “area with substrate ENLWFQS” value worked out at 0.0484.

As to MGESLFKGPRDYNPISSSICHLTNESDGHTTSLYGIGFGPFIITNKHLFRRNNGTLVVQSLHGVFKVYDTTTLQQHLVDGRDMIIIRMPKDFPPFPQKLKFREPQREERICLVTTNFQTKSMSSMVSDTSCTFPSGDGIFWKHWIQTKDGQCGSPLVSTRDGFIVGIHSASNFTNTNNYFTSVPKNFMELLTNQEAQQWVSGWRLNADSVLWGGHKVFMVKPEEPFQPVKEATQL [K68Y], the “area with substrate ENLCFQS” value is 0.0522, the “area with substrate ENLDFQS” value is 0.0367, the “area with substrate ENLEFQS” value was 0.0735 and the “area with substrate ENLFFQS” value was 0.0584. Moreover, the “area with substrate ENLHFQS” value is 0.0674, the “area with substrate ENLKFQS” value was 0.0784, the “area with substrate ENLLFQS” value turned out to be 0.0756 and the “area with substrate ENLNFQS” value amounted to 0.0533. The “area with substrate ENLPFQS” value was 0.0791 and the “area with substrate ENLQFQS” value is 0.068.
